The results in this text go back to the supplement of paper PMC4604168 (melanoma cell lines).

The list shows a part of the results. Most values come without repeats; read them as rough.
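Further: cells treated in 1,536-well plates, then fixed and DAPI-stained, with nuclei counted from automated high-throughput microscope images.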

In the assay the test system is A2058. Description: cell count relative to DMSO control; melanoma cells; higher = more viable cells. The following applies: library dose: standard library concentration; 72 h.
In the case of `Cc1ccc(NC(=O)c2cccc(N(C)C)c2)cc1NC(=O)c1ccc(O)cc1` + COc1ccc2c(c1)CCC1C2CCC2(C)C(NCCCCCCN3C(=O)C=CC3=O)CCC12 [U73122] (first compound 10 µM, partner dose 2 µM), the cell count was found to be 70.7%.

Take `CCc1ccc(CCOc2ccc(CC3SC(=O)NC3=O)cc2)nc1` (stereo not given) [pioglitazone] + O=S(=O)(c1ccccc1)N(CC(F)(F)F)c1ccc(C(O)(C(F)(F)F)C(F)(F)F)cc1 [T0901317] (first compound 10 µM, partner dose 7 µM): the cell count was found to be 95.4%. The same measure for `COc1cc2c(Oc3ccc4[nH]c(C)cc4c3F)ncnc2cc1OCCCN1CCCC1` [cediranib] + Oc1cc(-c2nc(-c3ccccc3)[nH]c2-c2ccncc2)ccc1Cl [L779450] (first compound 2 µM, partner dose 1 µM): 84.7%.

Take `Cc1ccc(NC(=O)c2cccc(N(C)C)c2)cc1NC(=O)c1ccc(O)cc1` + COc1ccc(COc2ccc(Cc3cnc(N)nc3N)cc2OC)cc1 [GW2580] (first compound 10 µM, partner dose 5 µM): the cell count turned out to be 75.8%. The same measure for `COc1cc2c(Oc3ccc4[nH]c(C)cc4c3F)ncnc2cc1OCCCN1CCCC1` [cediranib] + COc1ccc2c(c1)CCC1C2CCC2(C)C(NCCCCCCN3C(=O)C=CC3=O)CCC12 [U73122] (first compound 2 µM, partner dose 2 µM): 92.2%; for `CC(C)(C)c1cnc(CSc2cnc(NC(=O)C3CCNCC3)s2)o1` + Oc1nc(-c2ccc(C(F)(F)F)cc2)nc2c1CSCC2 [XAV939] (first compound 0.05 µM, partner dose 10 µM): 79.1%.

In turn, `COc1cc2c(Oc3ccc4[nH]c(C)cc4c3F)ncnc2cc1OCCCN1CCCC1` [cediranib] + O=C(O)C(=O)Nc1sc2c(c1C(=O)O)CCNC2 [TCS401] (first compound 2 µM, partner dose 8.33333 µM) had a cell count of 126%. The same measure for `Cc1ccc(NC(=O)c2cccc(N(C)C)c2)cc1NC(=O)c1ccc(O)cc1` + COC(=O)c1sccc1S(=O)(=O)Nc1ccc(Nc2ccccc2)cc1OC [GSK0660] (first compound 10 µM, partner dose 5 µM): 83%; for `CC(C)(C)c1cnc(CSc2cnc(NC(=O)C3CCNCC3)s2)o1` + CCc1ccc(CCOc2ccc(CC3SC(=O)NC3=O)cc2)nc1 [pioglitazone] (first compound 0.05 µM, partner dose 10 µM): 87.7%. The same measure for `CCc1ccc(CCOc2ccc(CC3SC(=O)NC3=O)cc2)nc1` (stereo not given) [pioglitazone] + COc1cc2ncnc(Nc3ccc(Oc4ccccc4)cc3)c2cc1OC [SrcI1] (first compound 10 µM, partner dose 10 µM): 90.6%.
